Reference: patent publication US8481501B2 (priority 2004, dated 2013)

Molecular target: mu opioid receptor (Homo sapiens, UniProt P35372)
Test: biochemical
Assay type: binding
Set-up: expressed in transfected cells; host or cells: transfected cells
[1] = Table 7, CHO membranes, read-out: Ki mu
[2] = Table 5, Example 33, listed as II

mu opioid receptor, sequence (P35372 whole entry): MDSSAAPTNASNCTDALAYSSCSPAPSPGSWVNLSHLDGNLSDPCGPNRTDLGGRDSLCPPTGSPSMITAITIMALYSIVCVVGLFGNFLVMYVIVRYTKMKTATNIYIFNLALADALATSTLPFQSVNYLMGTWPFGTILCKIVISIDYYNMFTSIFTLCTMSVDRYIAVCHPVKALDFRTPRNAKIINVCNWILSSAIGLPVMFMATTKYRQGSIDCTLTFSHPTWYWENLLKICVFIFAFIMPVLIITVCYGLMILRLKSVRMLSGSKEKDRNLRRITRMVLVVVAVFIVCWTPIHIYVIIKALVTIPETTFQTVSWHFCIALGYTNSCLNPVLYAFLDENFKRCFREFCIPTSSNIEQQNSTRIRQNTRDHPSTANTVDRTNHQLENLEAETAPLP

Row | Compound | Ki (Table 1, read-out: Ki μ) [nM] | κ/μ (Ki ratio, Table 1) | δ/μ (Ki ratio, Table 1) | other results
1 | COC(=O)[C@H]1OC(CC(=O)NC2C=CC3C4Cc5ccc(O)c6c5C3(CCN4C)C2O6)[C@H](OC(C)=O)[C@@H](OC(C)=O)[C@@H]1OC(C)=O (stereo in doubt) [compound 10, 6α-(Methyl 2′,3′,4′-tri-O-acetyl-β-D-glucopyranosyluronate)acetamido-morphine] | 2.8 | – | – | –
2 | CC(=O)OC[C@H]1OC(SC2C=CC3C4Cc5ccc(OC(C)=O)c6c5C3(CCN4C)C2O6)[C@H](OC(C)=O)[C@@H](OC(C)=O)[C@@H]1OC(C)=O (stereo partly drawn) [3c, 3-O-Acetyl-6β-S-(2′,3′,4′,5′-tetra-O-acetyl-β-D-glucopyranosyl)-6β-thiomorphine] | 305 ± 66 | – | – | –
3 | CC(=O)OC[C@H]1OC(SC2C=CC3C4Cc5ccc(O)c6c5C3(CCN4C)C2O6)[C@H](OC(C)=O)[C@@H](OC(C)=O)[C@@H]1OC(C)=O (stereo partly drawn) [3d, 6-βS-(2′,3′,4′,5′-Tetra-O-acetyl-β-D-glucopyranosyl)-6β-thiomorphine] | 7.78 ± 0.48 | 382 | – | –
4 | COC(=O)[C@H]1OC(SC2C=CC3C4Cc5ccc(OC)c6c5C3(CCN4C)C2O6)[C@H](OC(C)=O)[C@@H](OC(C)=O)[C@@H]1OC(C)=O (stereo partly drawn) [3e, 6β-S-(Methyl-2′,3′,4′-tri-O-acetyl-β-D-glucopyranosyluronate)codeine] | 64 ± 1.1 | 7.8 | 6.8 | –
5 | COc1ccc2c3c1OC1C(SC4O[C@H](COC(C)=O)[C@@H](OC(C)=O)[C@H](OC(C)=O)[C@H]4OC(C)=O)C=CC4C(C2)N(C)CCC341 (stereo partly drawn) [3f, 6-S-(2′,3′,4′,5′-Tetra-O-acetyl-β-D-glucopyranosyl)6β-thiocodeine] | 165 ± 27.7 | 13 | 2.8 | –
6 | CN1CCC23c4c5ccc(O)c4OC2C(SC2O[C@H](C(=O)O)[C@@H](O)[C@H](O)[C@H]2O)C=CC3C1C5 (stereo partly drawn) [4a, Morphine-6β-S-D-glucuronide] | 8.73 ± 0.85 | 33 | 3.6 | –
7 | CN1CCC23c4c5ccc(O)c4OC2C(SC2O[C@H](CO)[C@@H](O)[C@H](O)[C@H]2O)C=CC3C1C5 (stereo partly drawn) [4b, 6β-Thiomorphine-6β-S-D-glucopyranoside] | – | 25 | 10.4 | –
8 | COc1ccc2c3c1OC1C(SC4O[C@H](C(=O)O)[C@@H](O)[C@H](O)[C@H]4O)C=CC4C(C2)N(C)CCC341 (stereo partly drawn) [4c, Codeine 6β-S-glucuronide] | 463 ± 57 | >21 | 5.8 | –
9 | COc1ccc2c3c1OC1C(SC4O[C@H](CO)[C@@H](O)[C@H](O)[C@H]4O)C=CC4C(C2)N(C)CCC341 (stereo partly drawn) [4d, 6β-Thiocodeine-6β-S-D-glucose] | 127 ± 22.7 | 19.5 | 9 | –
10 | O=C(CC1OC(CO)C(O)C(O)C1O)NC1CCC2(O)C3Cc4ccc(O)c5c4C2(CCN3CC2CC2)C1O5 (centres unmarked) [6a, 14-Hydroxy-17-(cyclopropylmethyl)nordesmorphine-6-acetamidoglucose] | – | – | – | Ki mu (Table 7, CHO membranes): high affinity; Ki [1]: 1.8 ± 0.5 nM
11 | CN(C)c1cccc(C(=O)NC2CCC3(O)C4Cc5ccc(O)c6c5C3(CCN4CC3CC3)C2O6)c1 (centres unmarked) [6c, 6-(3′-dimethylamino)benzamido-14-hydroxy-17-(cyclopropylmethyl)nordesmorphine] | – | – | – | Ki: 2.9 ± 0.1 nM
12 | COc1cccc(C(=O)NC2CCC3(O)C4Cc5ccc(O)c6c5C3(CCN4CC3CC3)C2O6)c1 (centres unmarked) [6d, 6-(3′-Methoxy)benzamido-14-hydroxy-17-(cyclopropylmethyl)nordesmorphine] | – | – | – | Ki [1]: 0.6 ± 0.1 nM
13 | O=C(Cc1cccs1)NC1CCC2(O)C3Cc4ccc(O)c5c4C2(CCN3CC2CC2)C1O5 (centres unmarked) [6e, 6-(Thiophen-2′-yl)acetamidomido-14-hydroxy-17-(cyclopropylmethyl) nordesmorphine] | – | – | – | Ki: 2.9 ± 0.1 nM
14 | COC(=O)[C@H]1OC(CC(=O)NC2C=CC3C4Cc5ccc(OC)c6c5C3(CCN4C)C2O6)[C@H](OC(C)=O)[C@@H](OC(C)=O)[C@@H]1OC(C)=O (some centres unmarked) [9b] | 7.43 | 67 | 24 | fold higher affinity (potency) for the mu receptor than M6G: 1.7 fold
15 | CN1CCC23c4c5ccc(O)c4OC2C(NC(=O)CC2O[C@H](C(=O)O)[C@@H](O)[C@H](O)[C@H]2O)C=CC3C1C5 (stereo partly drawn) [11a, 6β-(α-Glucuronosyl)acetamidomorphine] | 14.6 | 22 | 3.7 | –
16 | COc1ccc2c3c1OC1C(NC(=O)CC4O[C@H](C(=O)O)[C@@H](O)[C@H](O)[C@H]4O)C=CC4C(C2)N(C)CCC341 (some centres unmarked) [11b] | 41.5 | 241 | 24 | fold reduction in binding affinity: 3.2 fold
17 | COc1cccc(CC(=O)NC2C=CC3C4Cc5ccc(O)c6c5C3(CCN4C)C2O6)c1 (stereo not drawn) [13a, 6β-(3-Methoxyphenyl)acetamidomorphine] | 0.35 ± 0.08 | 2.7 | 27 | –
18 | COc1ccc(CC(=O)NC2C=CC3C4Cc5ccc(O)c6c5C3(CCN4C)C2O6)cc1 (stereo not drawn) [13b, 6β-(4-Methoxyphenyl)acetamidomorphine] | 0.59 ± 0.19 | 4.8 | 44 | –
19 | COc1cccc(C(=O)NC2C=CC3C4Cc5ccc(O)c6c5C3(CCN4C)C2O6)c1 (stereo not drawn) [13c, 6β-(3-Methoxy)benzamidomorphine] | 0.21 ± 0.07 | 12.8 | 42 | –
20 | CN1CCC23c4c5ccc(O)c4OC2C(NC(=O)c2ccccc2)C=CC3C1C5 (centres unmarked) [13d, 60-Benzamidomorphine] | 0.4 ± 0.03 | 10.3 | 62.5 | –
21 | COC(=O)c1cccc(C(=O)NC2C=CC3C4Cc5ccc(O)c6c5C3(CCN4C)C2O6)c1 (stereo not drawn) [13e, 6β-(3′-Carbomethoxy)benzamidomorphine] | 0.23 | 6.7 | 15 | –
22 | CN1CCC23c4c5ccc(O)c4OC2C(NC(=O)c2cccc([N+](=O)[O-])c2)C=CC3C1C5 (stereo not drawn) [13f, 6β-(3′Nitro)benzamidomorphine] | 0.2 ± 0.04 | 13 | 36 | –
23 | CN1CCC23c4c5ccc(O)c4OC2C(NC(=O)c2ccc(Cl)c(Cl)c2)C=CC3C1C5 (stereo not drawn) [13g, 6β-(3′,4′-Dichloro)benzamidomorphine] | 0.2 ± 0.04 | 3.8 | 4.7 | –
24 | CN1CCC23c4c5ccc(O)c4OC2C(NC(=O)Cc2cccs2)C=CC3C1C5 (stereo not drawn) [13h, 6β-(Thiophen-2′-yl)acetamidomorphine] | 0.33 ± 0.02 | 1.8 | 44 | –
25 | CN1CCC23c4c5ccc(O)c4OC2C(OC2O[C@H](C(=O)O)[C@@H](O)[C@H](O)[C@H]2O)C=CC3C1C5 (some centres unmarked) [M6G, Morphine-6-glucuronide, reference compound] | – | – | – | Ki: 12.8 ± 0.95 nM; δ/μ: 13; κ/μ: 317
26 | O=C(C[C@@H]1O[C@H](COCc2ccccc2)[C@@H](OCc2ccccc2)[C@H](OCc2ccccc2)[C@H]1OCc1ccccc1)NC1CC[C@@]2(O)[C@H]3Cc4ccc(O)c5c4[C@@]2(CCN3CC2CC2)[C@H]1O5 (stereo partly drawn) [compound 5, 6-acetamido-2,3,4,6-tetra-O-benzyl-D-glucopyranosyl-14-Hydroxy-17-(cyclopropylmethyl)nordesmorphine] | – | – | – | Ki mu (Table 7, CHO membranes): high affinity; Ki [1]: 2.5 ± 0.6 nM
27 | CN1CC[C@]23c4c5ccc(O)c4O[C@H]2[C@H](NC(=O)C[C@@H]2O[C@H](COCc4ccccc4)[C@@H](OCc4ccccc4)[C@H](OCc4ccccc4)[C@H]2OCc2ccccc2)C=C[C@H]3[C@H]1C5 [compound 11] | – | – | – | fold higher affinity (potency) for the mu receptor than M6G: 27 fold; Receptor selectivity δ/μ (Table 5, Example 33): 10.3; Receptor selectivity κ/μ (Table 5, Example 33): 33.7; Receptor selectivity δ/μ [2]: 10; Receptor selectivity κ/μ [2]: 34; Ki (Table 5, Example 33, ± SEM, read-out: Ki μ): 0.47 ± 0.15 nM; receptor selectivity in binding (mu versus delta and kappa): μ receptor selective
28 | CN1CCC23c4c5ccc(O)c4OC2C(NC(=O)c2cccc(C(=O)O)c2)C=CC3C1C5 (stereo not drawn) [compound 14, 6β-(3′Carboxy)benzamidomorphine] | 19.9 | 502 | 2.5 | –
29 | Dihydromorphine-6-β-acetamidoglucose [compound 3] | – | – | – | Ki (read-out: Ki μ): 3.47 ± 0.37 nM

Like-named read-outs stand apart in the source and are kept apart here.
